The record followed here is the supplement of paper PMC11417369.

Some of the results follow.

The subject of the assay is PfSIP2 AP2 domain 1 (GST-tagged). The experiment in a line: gcPBM binding intensity (ln(normalized median fluorescence intensity)); higher = stronger DNA binding. The essentials:
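Alexa488 anti-GST antibody, scanned at 488 nm, detected GST-tagged P. falciparum DNA-binding domains that had been expressed in E. coli and incubated for 1 h on an Agilent 4 × 180k array. The array carried primer-extended double-stranded 36-bp intergenic genomic probes and negative controls. Binding intensity is the highest Masliner-normalised natural-log median intensity across replicate spots of either orientation of each probe.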
With “TGCATATTACTTTTTCACATAAAAATGATCCGATTA [GTGCAC_negctrl_site526]”, the “gcPBM binding intensity (ln)” value is 6.99.
Then “ATATTATGAATTGTCACACATATATTTAAAAATGTA [CACACA_site4852]”, with 6.85; and “GTTATACACATCAACACACACATACAACGTGGTGTA [CACACA_site6677]”, with 7.12; and “AAAATATAAAAATGAAGTACAAAAAAAAAAAAAAAA [XGTACX_site8132]”, with 6.92.
“AAAAAATGACTTAATATGAGCATATATTATGTTGTT [CACACA_negctrl_site1609]”: the “gcPBM binding intensity (ln)” value turned out to be 6.71.
As for CATTAAAATTGAGAGATGCACTTTTTAAGACCTTGT, the “gcPBM binding intensity (ln)” value turned out to be 9.06.
Turning to “AAAAAAAATTAAATAAATAAATATACACATATATAT [GTGCAC_negctrl_site394]”, the “gcPBM binding intensity (ln)” value is 7.09.
In the case of “TTTTTTTTTTTTTTTTTTTTACCCCTTTTTCAAAAA [CACACA_negctrl_site1524]”, the “gcPBM binding intensity (ln)” value came to 7.04.
Then “AAAACATTGTTTATGTGTACATAATTATATTTACAA [XGTACX_site6926]”, with 7.1; and “AACTAATTCATGTTATATTAGATAAAAAAAAAAAAA [TGCATGCA_negctrl_site340]”, with 6.88; and “ATATTTTTTAATTTTACACACCATATAAAATAATTC [CACACA_site7339]”, with 7.09.
Take “AAATATATTATATGTACACACAAAATTAAGGGATAT [CACACA_site1375]”: the “gcPBM binding intensity (ln)” value came to 7.47.
Consider “ATCAATACTTTTTTGGGTACATAAATATATATATAT [XGTACX_site8436]”, for which the “gcPBM binding intensity (ln)” value stood at 9.07.
“GTGTTTGAAAATAAAGCATGCAAATATATTTGAAAT [TGCATGCA_site386]”: the “gcPBM binding intensity (ln)” value is 7.05.
In the case of “AAAATAATAAATAAATGTACATATATATATATATAT [XGTACX_site3078]”, the “gcPBM binding intensity (ln)” value was 9.18.
With “TTTTTTTTGTTCATTGTGCACATTGCTTGCATGGAA [GTGCAC_site9693]”, the “gcPBM binding intensity (ln)” value was determined as 9.25.
For “ATAAGATTATACAATTGTACGTTGTTCAAGATAAGG [XGTACX_site191]”, the “gcPBM binding intensity (ln)” value was 6.99.
Take “TTTATGTGTATTAAGTGTACACATATAGTGTATTTT [XGTACX_site999]”: the “gcPBM binding intensity (ln)” value is 7.42.
For the sequence “ATATATAAGGAAAAAAGTACTTATATTTTTTTTTTG [XGTACX_site1909]”, the “gcPBM binding intensity (ln)” value turned out to be 6.74.
With “AACAAATGTTAAATGTTTAAGGAGAAAATAAAGACA [CACACA_negctrl_site1163]”, the “gcPBM binding intensity (ln)” value was determined as 7.4.
With “GAAAACATAAAAATATGTACTTAAAATATATTTTGT [XGTACX_site868]” the figure was 6.89.
On to “AAAACGAAACATCTGTGTATAAGTCTATATTATTAT [XGTACX_negctrl_site301]”, for which the “gcPBM binding intensity (ln)” value came out at 6.85.
As to “TGTCATGATACATACACACACATACCCATACCCATA [CACACA_site5211]”, the “gcPBM binding intensity (ln)” value was determined as 7.06.
As to “AAATAAAGCATGTGCTGTACAAACGAAATATTTAAG [XGTACX_site3146]”, the “gcPBM binding intensity (ln)” value is 6.95.
Then “TAAAATGTACAGGACGCACACACATATATATATATA [CACACA_site3673]”, with 9.5; and “TTTTTTTTTTTTCATTGTACTCTTAAAAATTCAACT [XGTACX_site3154]”, with 7.11; and “AACAACAACTAATATGCACACATTTAAAAACAAAAT [CACACA_site2440]”, with 7.5.
Turning to “TATTTTTTTTTTTTTTTACACACTATAGGGAAAAAA [CACACA_site8583]”, the “gcPBM binding intensity (ln)” value was determined as 6.95.
“ATTAAAATTTAAAATACACACACATATATATAATAT [CACACA_site8612]”: the “gcPBM binding intensity (ln)” value was determined as 7.16.
For “GCTTCTTAATATCATACACACATAGATATATTTATA [CACACA_site5676]”, the “gcPBM binding intensity (ln)” value was 7.5.
“GGAGACTTTGTATTGGGTACGTATTTCAATGCATGT [XGTACX_site1596]”: the “gcPBM binding intensity (ln)” value was 7.12.
For “AAACCTTTACATCGTTTGCACTATATTGATATGTGT [GTGCAC_site9686]”, the “gcPBM binding intensity (ln)” value amounted to 8.37.
Turning to “CATACATACATACATACACACACATATATATATATA [CACACA_site8593]”, the “gcPBM binding intensity (ln)” value amounted to 9.67.
On to “TTTTTTAACAAAAATAAAACATAACTGAATTAAAAG [GTGCAC_negctrl_site244]”, for which the “gcPBM binding intensity (ln)” value was 7.
Then “CTTCCTATATTTTACTGTACTTTTTTTTTTTTTTTT [XGTACX_site4016]”, with 7.67; and “ACGAATTAAATTTGCTGTACCAAAAAGAAAACAATA [XGTACX_site5511]”, with 7.09; and “TCATTTTAAAAAAATAGTACTTTAAGAAACTTTTAT [XGTACX_site602]”, with 6.81.
As to “TTTTTTTTTTTTTTTTTTTATGTATACATATTTATA [TGCATGCA_negctrl_site234]”, the “gcPBM binding intensity (ln)” value worked out at 7.15.
Take “GATATTCTATAAAAAAGTACAAATATTTTAAAAAAT [XGTACX_site2177]”: the “gcPBM binding intensity (ln)” value was 7.05.
With “AGCATTAATTATTTCACACATATATATATATATATA [CACACA_site4889]”, the “gcPBM binding intensity (ln)” value was 9.6.
In the case of “TAAATCCTTTACAACACACACACAAAAAAAAAAAAA [CACACA_site643]”, the “gcPBM binding intensity (ln)” value amounted to 7.07.
As to “ATATTCATGTTGATATGTACTTATTCTATATTGAAT [XGTACX_site8347]”, the “gcPBM binding intensity (ln)” value worked out at 7.01.
As for “TATATATATATATATATACACACTTGTGCAGAATAT [CACACA_site2216]”, the “gcPBM binding intensity (ln)” value was found to be 9.56.
For the sequence “AATACAAGAACTGACACACATACATACTACATTTTA [CACACA_site2829]”, the “gcPBM binding intensity (ln)” value was determined as 7.08.
“ATATTTATATATAGTAGTACTTTCAATAATTTAAAT [XGTACX_site7276]”: the “gcPBM binding intensity (ln)” value was determined as 7.05.
In the case of “TATGATATTTATATGCGTACTGAAGTATGCCTATTT [XGTACX_site6133]”, the “gcPBM binding intensity (ln)” value was 6.77.
With “AAAAAATTAAAAATACGTACATATATACATATATAT [XGTACX_site4621]”, the “gcPBM binding intensity (ln)” value came out at 7.31.
Then TCTTAAAATATATAGGTGCAAAAAAAAAAAAAAAAA, with 10.6.
Consider “AAAGAAAGAAGACACACACACATATATAAATATCAA [CACACA_site7715]”, for which the “gcPBM binding intensity (ln)” value was 6.9.
For “TGTTTTTATTTATTCTGTACTGAAGAGAGTTATATA [XGTACX_site8859]”, the “gcPBM binding intensity (ln)” value amounted to 7.19.
Take “TAAGAAATAAATAGTACACACATAGACACAGACACA [CACACA_site4934]”: the “gcPBM binding intensity (ln)” value was found to be 7.27.
Turning to “TTTAAATACAGACATACACACATACACCCACATATA [CACACA_site8078]”, the “gcPBM binding intensity (ln)” value is 7.31.
Take “ATATAAATTTTTTATGAACACACAAATACAGACACT [CACACA_site8848]”: the “gcPBM binding intensity (ln)” value is 7.37.
For the sequence “GTATATGAGAAAAAAAGTACATGCACAAAATGTATA [XGTACX_site6441]”, the “gcPBM binding intensity (ln)” value was 7.42.
As for “ATAATTAAAAAAAATTGTACATATAAATAGAAGATT [XGTACX_site230]”, the “gcPBM binding intensity (ln)” value came out at 7.22.
For the sequence “AGATTAAAATAATATAAACACACATATACTTTTTTC [CACACA_site8085]”, the “gcPBM binding intensity (ln)” value worked out at 7.01.
